The subject of this data set is ATP. Put plainly: switch fluorescence ratio, 500 uM ATP over buffer (Cy3 cluster intensity, sum of 5 cycles each) (fold (ratio)); higher = stronger signal-on switching upon ATP binding; sequences stand for … in TCGTCGGCAGCGTCAGATGTGTATAAGAGACAGTTTTTTTTTTTTTTTTTTTTTTTTT…TC. The settings on record: aptamer strand: ATP DNA aptamer (quencher-CACCTGGGGGAGTATTGCGGAGGAAGG + anchor), 100 nM annealed; ATP concentration: 500 uM; one replicate. A digest of the protocol: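 Cy3-labelled switching-strand clusters on a modified Illumina MiSeq flow-cell were annealed to 100 nM quencher-labelled ATP aptamer and imaged first in selection buffer, then after 15 min with 500 uM ATP at 22 °C. NaOH stripping and re-annealing separated each of five buffer/ATP cycles, and clusters outside 100-1000 RFU were excluded. The fluorescence ratio sums target-cycle Cy3 intensity over buffer-cycle Cy3 intensity per cluster and averages it per switch-domain sequence.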

Switch fluorescence ratio data for 67 sequences are collected here from the supplement of paper PMC10126150.

Sequences with one replicate were seen in a single cluster, so their values are uncertain.
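Note: ATP exposure 15 min at 22 °C before imaging.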

As to GATCTGCTGT, the switch fluorescence ratio is 0.97. With CGTTGATGCG the figure was 1.02; with GTAGAGCATT, 0.998; with CACCGCCCGT, 1.23. With TGCAGTAGGC the figure was 1.04; with CTGCAATCTT, 6.11. With CCGGAGAG the figure was 1.04; with TTAGTCACTA, 1.02; with AAAATGGAAC, 1.03.

For TTGGATTCA, the switch fluorescence ratio was determined as 0.995. With AATATAGGGC the figure was 1.05. On to AATCTGTAAC, for which the switch fluorescence ratio stood at 1.02. Take ATAATTGCCT: the switch fluorescence ratio came out at 1.07.

Consider TCCGAACAAG, for which the switch fluorescence ratio is 1.69. With GTGGTAATGT the figure was 1.01; with GCGAGGGGAG, 0.96; with GGAATTCGAA, 1.01. For AGCAATGATG, the switch fluorescence ratio came to 1.18. Regarding GAGGACAAGA, the switch fluorescence ratio came to 1.02. TATCCAACCC: the switch fluorescence ratio amounted to 1.11.

Regarding AGTTCATTGA, the switch fluorescence ratio was found to be 1.02. With CAAGGATATA the figure was 1.01. In the case of TTATAAGGTG, the switch fluorescence ratio turned out to be 1.64. Next, GACAGGGCTT: 0.992; GACTATGCCG: 0.98; GTCTTAGATT: 1.01.

Take ACCGGGACCT: the switch fluorescence ratio came out at 1.32. Next, CCTATATCCT: 1.05; TCGCGTATCG: 0.977. Next, ACCGGAATCG: 1.09; GTTCTACTTC: 0.987. Consider AGGGTGTCGT, for which the switch fluorescence ratio is 1.05.

For the sequence CATGACGGTG, the switch fluorescence ratio turned out to be 0.979. Next, TACGCAGAGC: 1.3. GCTAGATACC: the switch fluorescence ratio was 0.993.

Regarding GGATACCTCC, the switch fluorescence ratio stood at 1.07.

Take GACGGAGCCT: the switch fluorescence ratio was 2.1.

In the case of GTGCCTTCCA, the switch fluorescence ratio was 1.37. Next, AGGGCCAGTG: 1; AGCCATCTAG: 0.987. With AAGGCACACG the figure was 1.02; with AATCTATGTG, 1.02. With TCCCAGTGAT the figure was 1.8. For GCTCGGGAAA, the switch fluorescence ratio was 1.05. With AAAGCCATTC the figure was 1.04.

As for CTGTACGGCC, the switch fluorescence ratio is 1.03.

With CGGGATAAGA, the switch fluorescence ratio turned out to be 1.01.

Regarding CAGGCATCTG, the switch fluorescence ratio came to 1.03.

With GTCACTACTT, the switch fluorescence ratio was 1.02.

As for AACTATGCA, the switch fluorescence ratio was 1.

As for TGGATGTGAG, the switch fluorescence ratio came out at 1.04. With TTTTCGACCA the figure was 1.15; with GTTTATTCGT, 0.983; with GACAGGGGTG, 1.01. Next, GCGCGAAATT: 0.982; CCGTGTAGTG: 1.01; AGGAGCACAG: 1.01. With CTCCTTGAGA, the switch fluorescence ratio is 0.971.

As to TTGTACATAA, the switch fluorescence ratio came to 0.961.

For the sequence TTCGGAAT, the switch fluorescence ratio came out at 1.05.

Take AAGAAACGAG: the switch fluorescence ratio is 1.02.

For ATAGCTATGG, the switch fluorescence ratio amounted to 1.08. With CCGGAAAGAC the figure was 2.54. With CGGATTAGCC, the switch fluorescence ratio was 1.02. With GTGTGTCGTA the figure was 0.956. Next, GCTCGTTACC: 0.968. With GTGGGGACTA the figure was 1.01.
